{
  "source": "PubChem BioAssay AID504845",
  "about": "(National Center for Advancing Translational Sciences (NCATS), 2011)",
  "note": "Where “and” joins values, the source holds several entries; their conditions need not be identical. Equal values may be shown once. Among all 390,000 compounds or so, about 150 (0.038%) were called active. Inconclusive results (about 3%) are left out. Calls follow the shape of the dose curve; as a rule, active = well fitted inhibition curve with a large enough effect; inconclusive = small, poorly fitted or top-dose-only effect; inactive = no such curve, though single readings can be large or run the other way. The list shows a part of the results, in another mix than the full data. Some compounds were tested as several samples or in several runs, with calls that do not always agree. Non-standard residues stand in square brackets, D forms with d. Residues, ends and D or L forms follow the SMILES beside them. *: point of attachment. Sta = CC(C)C[C@H](N)[C@@H](O)CC(=O)O; Isovaleryl = CC(C)CC(=O)*",
  "data": [
    {"molecular_target": "Regulator of G-protein signaling 4 (Homo sapiens) (UniProt P49798)", "sequence (P49798 whole entry, looked up)": "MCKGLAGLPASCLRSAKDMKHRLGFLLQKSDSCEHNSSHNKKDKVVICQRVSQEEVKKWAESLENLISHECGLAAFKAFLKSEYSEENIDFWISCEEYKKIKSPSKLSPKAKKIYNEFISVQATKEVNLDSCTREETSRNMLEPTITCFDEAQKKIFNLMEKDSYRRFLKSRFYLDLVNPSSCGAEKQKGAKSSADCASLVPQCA", "assay": "Inhibitors of Regulator of G Protein Signaling (RGS) 4: qHTS; also: nearly all actives have a fitted effect of over 75% in size; also: potency is read from the fitted curve at half-maximal effect; as to activity change, negative = inhibition: % is scaled to controls: 0 for no effect and ±100 for the full control effect", "conditions": "Transcreener GDP fluorescence polarization, RGS4-accelerated GTP hydrolysis; series mostly up to 114 µM; activity change, negative = inhibition: at the top concentration", "procedure,_shortened": "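MLSMR compounds (23 nl, pin-transferred) preincubated 10 min at room temperature with a 500nM (2x) first reagent, then RGS4 at 900nM (2x) plus Transcreener GDP mix added; fluorescence polarization (620/688 nm) read before and after 90 min at 30 °C.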", "values": [
      {"molecule": "OCC[C@@H]1C[C@H](O)[C@@H](O)[C@]2(CCc3ccccc3CO2)O1", "activity change, negative = inhibition": "inactive: -10.5%"},
      {"molecule": "Cc1cccc(C(=O)N=c2c(C#N)cc3c(=O)n4cccc(C)c4nc3n2Cc2ccco2)c1", "activity change, negative = inhibition": "inactive: -41.1%"},
      {"molecule": "CCOC(=O)CNC(=O)C1CCC(CNS(=O)(=O)c2cccc3nsnc23)CC1", "note": "(stereo not drawn)", "activity change, negative = inhibition": "inactive: 70.5%"},
      {"molecule": "O=C(Nc1nnc(-c2ccc(Cl)cc2)o1)Nc1ccccc1Cl", "activity change, negative = inhibition": "inactive: 57.7%"},
      {"molecule": "O=c1cc2n(c(=O)[nH]1)CCC1=C2CCCC1", "activity change, negative = inhibition": "inactive: 58.2%"},
      {"molecule": "O=C(NCc1ccncc1)c1cc(F)c(F)cc1Cl", "activity change, negative = inhibition": "inactive: 91.2%"},
      {"molecule": "N=C(N)c1ccc(N=Nc2c(O)ccc3c2[nH]c2ccccc23)cc1", "activity change, negative = inhibition": "inactive: 66.1%"},
      {"molecule": "O=C(Nc1cccc(NC(=O)c2cccs2)c1)c1ccc2c(c1)OCO2", "activity change, negative = inhibition": "inactive: 57.5%"},
      {"molecule": "OCCN1CCN(CC/C=C2/c3ccccc3Sc3ccc(C(F)(F)F)cc32)CC1", "activity change, negative = inhibition": "inactive: -11.8%"},
      {"molecule": "NCC(O)C1CCCCCCC1", "note": "(stereo not drawn)", "activity change, negative = inhibition": "inactive: 1.19% [at 56.9 µM]"},
      {"molecule": "CN1CCC(=C2c3ccccc3C=Cc3ccccc32)CC1", "activity change, negative = inhibition": "inactive: -6.52%"},
      {"molecule": "BrC(=C\\c1ccccc1)/C=N/Nc1nc(N2CCOCC2)nc(N2CCOCC2)n1", "activity change, negative = inhibition": "inactive: -6.24%"},
      {"molecule": "NNCCc1ccccc1", "activity change, negative = inhibition": "inactive: -21.4%"},
      {"molecule": "O=C(NCC1CCCO1)/C(=C\\c1ccccc1)NC(=O)c1ccccc1", "note": "(stereo not drawn)", "activity change, negative = inhibition": "inactive: -14.2%"},
      {"molecule": "C[C@H](NC(=O)[C@@H]1Cc2ccccc2CN1)C(=O)NCC1CCCO1", "note": "(stereo partly drawn)", "activity change, negative = inhibition": "inactive: -64.3% [at 56.9 µM]"},
      {"molecule": "CCCCC/C=C\\C/C=C\\CCCCCCCC(=O)O[C@@H](CO)COC(=O)CCCCCCCCCCCCCCCCC", "Potency": "active: 2.67 µM"},
      {"molecule": "CCn1c(SCC(=O)N/N=C/C=C\\c2ccccc2[N+](=O)[O-])nnc1-c1ccccc1", "activity change, negative = inhibition": "inactive: 28.8%"},
      {"molecule": "Cc1c(NS(=O)(=O)c2ccccc2F)c(=O)n(-c2ccccc2)n1C", "activity change, negative = inhibition": "inactive: 58.2%"},
      {"molecule": "C[C@@](N)(C(=O)O)[C@@H]1C[C@@H]1C(=O)O", "Potency": "active: 23.8 µM"},
      {"molecule": "COC(=O)C1=C(C)NC(C)=C([N+](=O)[O-])C1c1ccccc1C(F)(F)F", "note": "(stereo not drawn)", "Potency": "inactive"},
      {"molecule": "COc1cc(C(=O)OCCCN2CCCN(CCCOC(=O)c3cc(OC)c(OC)c(OC)c3)CC2)cc(OC)c1OC", "Potency": "inactive"},
      {"molecule": "CCn1cc(C(=O)NCCCOC)c(=O)c2cc(S(=O)(=O)N3CCC(C)CC3)ccc21", "activity change, negative = inhibition": "inactive: 70.5%"},
      {"molecule": "C=CCCC(=O)N1CCC(n2nccc2NC(=O)c2ccc(OC)cc2)CC1", "activity change, negative = inhibition": "inactive: 54%"},
      {"molecule": "COc1ccc(OC)c(C(c2nnnn2CCC(C)C)N2CCN(C(=O)c3ccco3)CC2)c1", "note": "(stereo not drawn)", "activity change, negative = inhibition": "inactive: 54.4%"},
      {"molecule": "Cc1c(C(=O)NCCO)sc2nc3n(c(=O)c12)CCC3", "activity change, negative = inhibition": "inactive: 64.8%"},
      {"molecule": "COc1ccc(C(CNC(=O)COc2ccccc2C)N2CCCCC2)cc1", "note": "(stereo not drawn)", "activity change, negative = inhibition": "inactive: 56.7%"},
      {"molecule": "O=C(Nc1ccc(-c2nc3ccccc3[nH]2)cc1)c1ccco1", "activity change, negative = inhibition": "inactive: -2.34%"},
      {"molecule": "O=C(NCCN1CCOCC1)/C(=C\\c1ccccc1Cl)NC(=O)c1ccccc1", "activity change, negative = inhibition": "inactive: 66.1%"},
      {"molecule": "CCC(C)N(C)C(=O)c1cc2ccccc2c(-c2ccccc2Cl)n1", "note": "(stereo not drawn)", "activity change, negative = inhibition": "inactive: -5.39%"},
      {"molecule": "Cc1nc2ccc3nc(NC(=O)c4ccc5c(c4)OCCO5)sc3c2s1", "activity change, negative = inhibition": "inactive: -28.2%"},
      {"molecule": "COC(=O)/C=C1/S/C(=N/NC(=O)c2ccc(OC)cc2)NC1=O", "activity change, negative = inhibition": "inactive: -2.85%"},
      {"molecule": "Nc1ncnc2c1c(-c1ccc(Oc3ccccc3)cc1)cn2C1CCCC1", "activity change, negative = inhibition": "inactive: -2.18%"},
      {"molecule": "CN1CCN(CCCN2c3ccccc3Sc3ccc(Cl)cc32)CC1", "Potency": "inactive"},
      {"molecule": "N=c1c[n+](N2CCOCC2)[n-]o1", "Potency": "inactive and active: 18.9 µM"},
      {"molecule": "Cc1ccc(NC(=S)N/C(=N/S(=O)(=O)c2ccccc2)c2ccccc2)cc1", "activity change, negative = inhibition": "inactive: 16.3% [at 11.4 µM]"},
      {"molecule": "CC(=O)[C@]1(O)Cc2c(O)c3c(c(O)c2[C@@H](O[C@H]2C[C@H](N)[C@H](O)[C@H](C)O2)C1)C(=O)c1ccccc1C3=O", "activity change, negative = inhibition": "inactive: -10.2%"},
      {"molecule": "Cn1ccc2cc(NC(=O)Nc3cccnc3)ccc21", "activity change, negative = inhibition": "inactive: 276% [at 56.9 µM]"},
      {"molecule": "COc1ccc(CCN(C)CCCC(C#N)(c2cc(OC)c(OC)c(OC)c2)C(C)C)cc1OC", "note": "(stereo not drawn)", "Potency": "inactive"},
      {"molecule": "O=C(/C=C/c1ccc(O)c(O)c1)OCCc1ccccc1", "activity change, negative = inhibition": "inactive: -8.43%"},
      {"molecule": "C[C@H]1c2cccc(O)c2C(O)=C2C(=O)C3(O)C(O)=C(C(N)=O)C(=O)[C@@H](N(C)C)[C@@H]3[C@@H](O)[C@@H]21", "note": "(stereo partly drawn)", "activity change, negative = inhibition": "inactive: -36.4%"},
      {"molecule": "N#CC1=C(N)C(C#N)(C#N)[C@H](c2cccnc2)[C@H]2CN(C(=O)OCc3ccccc3)CC=C12", "activity change, negative = inhibition": "inactive: -31.5%"},
      {"molecule": "CCCCC[C@H](O)/C=C/[C@H]1[C@H](O)CC(O)[C@@H]1C/C=C\\CCCC(=O)O", "note": "(stereo partly drawn)", "Potency": "active: 26.7 µM"},
      {"molecule": "CC(=O)O[C@H]1C(=O)[C@@]2(C)C([C@H](OC(=O)c3ccccc3)[C@]3(O)C[C@H](OC(=O)[C@H](O)[C@@H](NC(=O)c4ccccc4)c4ccccc4)C(C)=C1C3(C)C)[C@]1(OC(C)=O)CO[C@@H]1C[C@H]2O", "note": "(stereo partly drawn)", "activity change, negative = inhibition": "inactive: -4.97%"},
      {"molecule": "CCOC(=O)[C@@H]1[C@H]2COc3ccccc3[C@@H]2N2C(=O)N(c3ccc(C)cc3)C(=O)[C@@]12C", "activity change, negative = inhibition": "inactive: 1.55%"},
      {"molecule": "CCCNCC(O)COc1ccccc1C(=O)CCc1ccccc1", "note": "(stereo not drawn)", "Potency": "inactive"},
      {"molecule": "COc1ccc(S(=O)(=O)Nc2cccc(-c3ccc(N4CCCCCC4)nn3)c2)c(OC)c1", "activity change, negative = inhibition": "inactive: -27.1% [at 56.9 µM]"},
      {"molecule": "COc1cc([C@@H]2c3cc4c(cc3[C@@H](O[C@@H]3O[C@@H]5CO[C@@H](C)O[C@H]5[C@H](O)[C@H]3O)[C@H]3COC(=O)[C@H]23)OCO4)cc(OC)c1O", "activity change, negative = inhibition": "inactive: 7.06%"},
      {"molecule": "CN(C)c1nc(N(C)C)nc(N(C)C)n1", "activity change, negative = inhibition": "inactive: 13.7%"},
      {"molecule": "CN1C(=O)/C(=C\\c2cc(N=Nc3ccccc3)ccc2O)SC1=S", "activity change, negative = inhibition": "inactive: -40.7%"},
      {"molecule": "Nc1nc(NCc2ccc(Cl)c(Cl)c2)c2[nH]cnc2n1", "activity change, negative = inhibition": "inactive: -3.15%"},
      {"molecule": "COC(=O)C1=C(C)NC(C)=C(C(=O)OCCSc2ccccc2)C1C", "note": "(stereo not drawn)", "Potency": "active: 37.7 µM"},
      {"molecule": "CC(C)CC(=O)N[C@H](C(=O)N[C@H](C(=O)N[C@@H](CC(C)C)[C@@H](O)CC(=O)N[C@@H](C)C(=O)N[C@@H](CC(C)C)[C@@H](O)CC(=O)O)C(C)C)C(C)C", "note": "(Isovaleryl-VV[Sta]A[Sta]-OH)", "activity change, negative = inhibition": "inactive: -14.4%"},
      {"molecule": "CCOC(=O)C12CC1/C(=N/O)c1ccccc1O2", "note": "(stereo not drawn)", "activity change, negative = inhibition": "inactive: 7.42% [at 56.9 µM]"},
      {"molecule": "CCOc1ccc(NC(=O)CCS(=O)(=O)c2ccc(Br)cc2)cc1", "activity change, negative = inhibition": "inactive: 31.9%"},
      {"molecule": "C=CCN1CCc2c(cc(O)c(O)c2Br)[C@@H](c2ccccc2)C1", "activity change, negative = inhibition": "inactive: 5.74%"},
      {"molecule": "CCC(=O)N1CCc2cc(S(=O)(=O)NC(C(=O)NCc3ccccc3)C(C)C)ccc21", "note": "(stereo not drawn)", "activity change, negative = inhibition": "inactive: 58.6%"},
      {"molecule": "N#C/C(=C\\c1ccc(-c2ccc(C(=O)O)cc2)o1)c1nc2ccccc2[nH]1", "activity change, negative = inhibition": "inactive: 6.14%"},
      {"molecule": "CC(=O)[C@H]1CCC2C3CC=C4C[C@@H](O)CC[C@]4(C)C3CC[C@@]21C", "note": "(stereo partly drawn)", "activity change, negative = inhibition": "inactive: -4.22%"}
    ]}
  ]
}
